Where “and” joins values, the source holds several entries; their conditions need not be identical. Identical values can stand only once. Hit rate of the full screen: of about 390,000 compounds, about 4,000 (1%) were called active. Inconclusive means that the source gave no clear call. Such entries were picked first, then a sample of the others. Calls come from the whole dose curve; as a rule, active = well fitted inhibition curve with a large enough effect; inconclusive = small, poorly fitted or top-dose-only effect; inactive = no such curve, though single readings can be large or run the other way. Potencies of inconclusive entries are doubtful fits and often do not repeat. The source holds several records for some structures; these can differ, active in one and inactive in another.
What follows are molecules tested against Thioredoxin reductase 1, cytoplasmic (Rattus norvegicus) (UniProt O89049) (assay: qHTS Assay for Inhibitors of Mammalian Selenoprotein Thioredoxin Reductase 1 (TrxR1): qHTS). Details: recombinant rTrxR1, NADPH fluorescence consumption, selenite substrate; series mostly up to 114 µM.
Sequence of UniProt O89049 (O89049 whole entry, looked up): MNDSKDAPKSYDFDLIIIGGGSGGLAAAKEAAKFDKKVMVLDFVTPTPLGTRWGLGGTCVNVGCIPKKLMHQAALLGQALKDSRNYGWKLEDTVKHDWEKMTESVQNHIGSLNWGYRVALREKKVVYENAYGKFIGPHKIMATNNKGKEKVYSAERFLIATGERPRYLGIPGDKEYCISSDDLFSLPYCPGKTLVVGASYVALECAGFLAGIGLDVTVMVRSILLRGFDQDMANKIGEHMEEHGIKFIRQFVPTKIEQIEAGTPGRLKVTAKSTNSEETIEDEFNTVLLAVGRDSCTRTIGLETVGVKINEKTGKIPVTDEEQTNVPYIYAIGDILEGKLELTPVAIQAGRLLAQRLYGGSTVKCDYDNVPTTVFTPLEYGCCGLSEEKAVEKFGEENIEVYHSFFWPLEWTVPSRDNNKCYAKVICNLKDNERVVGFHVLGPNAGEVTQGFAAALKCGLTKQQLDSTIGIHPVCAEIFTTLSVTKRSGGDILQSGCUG
Outline: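 Rat TrxR1 (90 nM in the dispensed reagent) was pre-reduced with 400 uM NADPH for 5 min at room temperature, then incubated with compound for 15 min. After 400 uM selenite was added, NADPH fluorescence (Ex 340/Em 450 nm) was followed for 8 min.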
With `Cc1ccc2nc(N(CCCN(C)C)C(=O)c3ccc(Br)s3)sc2c1` the Potency was inconclusive: 79.4 µM [inhibitor, partial curve, poor fit]. For `COC(=O)c1ccc(/C=C/c2c(-c3ccsc3)sc3ccccc23)cc1`, the Potency was inconclusive: 89.1 µM [inhibitor, single point]. `COc1cc(/C=C2/NC(=O)NC2=O)ccc1OCC(=O)Nc1ccc(F)cc1` was tested, and the Potency was inconclusive: 89.1 µM [inhibitor, single point]. In the case of `O=C(NCCc1nc2ccccc2[nH]1)/C(=C/c1ccco1)NC(=O)c1ccccc1Br`, the Potency is reported as inconclusive: 56.2 µM [inhibitor, single point]. In the case of `CCCCCCCCCCC(C)(C)C(=O)Nc1c(OC)cc(OC)cc1OC`, the Potency is reported as “inactive and inconclusive: 33.6 µM [inhibitor, partial curve, poor fit]”. With `O=C1CC(=O)N(c2ccccc2)N1c1ccccc1` the Potency was inconclusive: 25.1 µM [inhibitor, full curve]. With `COc1ccc2ccccc2c1C1CC(=O)N2CN(C)CSC2=C1C#N` (stereo not given) the Potency was inconclusive: 44.7 µM [inhibitor, partial curve]. In the case of `O=C(NCCc1ccccc1)c1c[nH]c2ccc(S(=O)(=O)Nc3ccccc3F)cc2c1=O`, the Potency is reported as “inactive”. `O=c1cc(O)c2sc(Nc3ccc(F)cc3)nc2[nH]1` was tested, and the Potency was inconclusive: 89.1 µM [inhibitor, single point]. In the case of `CN(C)/C(=C\C(=O)c1ccccc1)C(=O)c1ccccc1`, the Potency is reported as “inactive”. `O=C(c1cc(-c2cccs2)on1)N1CCCCC1` was tested, and the Potency was inconclusive: 31.6 µM [inhibitor, partial curve]. With `O=C(OC(c1ccc(NS(=O)(=O)c2ccccc2)cc1)(C(F)(F)F)C(F)(F)F)c1ccccc1` the Potency was “inactive”. `Cc1c(Cl)cccc1NC(=O)CSC(N)=O` was tested, and the Potency was inconclusive: 89.1 µM [inhibitor, single point]. With `COC(=O)C(CC(=O)c1ccc(C)cc1)n1cccn1` (stereo not given) the Potency was inconclusive: 44.7 µM [inhibitor, partial curve, poor fit]. `Cn1c(=O)c2[nH]c(-c3ccc(S(=O)(=O)O)cc3)nc2n(C)c1=O` was tested, and the Potency was active: 31.6 µM. With `Cc1ccc(-c2nc(C(Cl)Cl)c3ccccc3n2)cc1` the Potency was “inactive”. With `CSc1ccccc1NC(=O)CN(C)Cc1c(O)ccc2ccccc12` the Potency was inconclusive: 56.2 µM [inhibitor, partial curve, poor fit]. For `S=C1NC2(CCCCC2)Nc2ccccc21`, the Potency was inconclusive: 44.7 µM [inhibitor, partial curve, poor fit]. With `Cc1ccc(OCCCC(=O)Nc2ccc(Cl)c(S(=O)(=O)N3CCOCC3)c2)cc1` the Potency was “inactive”. `CCOC(=O)c1ccc(NC(=S)NNC(=O)C2(C)CC2(Cl)Cl)cc1` (stereo not given) was tested, and the Potency was inconclusive: 31.6 µM [inhibitor, single point]. With `O=C(NC1CCCC1)c1cc(-c2cccs2)on1` the Potency was inconclusive: 89.1 µM [inhibitor, single point] and inconclusive: 22.4 µM [inhibitor, partial curve, poor fit]. With `O=C(c1cc2c(ccc3ccccc32)oc1=O)N1CCCC1` the Potency was inconclusive: 70.8 µM [inhibitor, single point]. In the case of `COc1cc(CN2CCC(C(=O)N3CCCC(C)C3)CC2)cc(OC)c1O` (stereo not given), the Potency is reported as inconclusive: 28.2 µM [inhibitor, partial curve]. With `CCc1ccc(NC(=O)c2nc(SCc3ccccc3F)ncc2Cl)cc1` the Potency was “inactive”. With `COc1ccc(C(C[N+](=O)[O-])c2c(C)[nH]n(-c3ccccc3)c2=O)cc1` (stereo not given) the Potency was inconclusive: 15.8 µM [inhibitor, partial curve]. In the case of `Cc1c(Cl)c([N+](=O)[O-])nn1CC(=O)NCc1cccs1`, the Potency is reported as inconclusive: 100 µM [inhibitor, partial curve, poor fit]. With `Cc1noc(/C=C/c2ccco2)c1S(=O)(=O)N1CCC(C(=O)N2c3ccccc3CC2C)CC1` (stereo not given) the Potency was inconclusive: 70.8 µM [inhibitor, single point]. In the case of `CC(=O)NCc1ccc2[nH]c(C)cc2c1`, the Potency is reported as inconclusive: 12.6 µM [inhibitor, partial curve]. In the case of `COC(=O)c1ccc(Sc2nnnn2-c2ccccc2)c([N+](=O)[O-])c1`, the Potency is reported as inconclusive: 14.1 µM [inhibitor, partial curve]. `CSC(SC)=C(C#N)C(=O)c1ccccc1` was tested, and the Potency was active: 17.8 µM. In the case of `COc1cccc(CN2CCN(C3CSCCSC3)CC2CCO)c1` (stereo not given), the Potency is reported as “inactive”. For `COc1ccc(Nc2oc(COc3ccccc3OC)nc2C#N)cc1`, the Potency was active: 44.7 µM. For `CN(CC(=O)Nc1cccc(F)c1)C(=O)C1CCN(C(=O)c2ccc(Cl)cc2)CC1`, the Potency was “inactive”. `O=C(Cn1ccnc1)c1ccc(Cl)cc1` was tested, and the Potency was inconclusive: 79.4 µM [inhibitor, partial curve, poor fit]. In the case of `COc1ccc(OC)c(-c2c3c([nH]c(=S)c2C#N)CCCC3)c1`, the Potency is reported as inconclusive: 11.2 µM [inhibitor, partial curve, poor fit]. With `Cc1cc(CNC(=S)Nc2ccc(Br)cc2Cl)nn1C` the Potency was inconclusive: 6.31 µM [inhibitor, full curve]. `COc1ccccc1C1=Nn2c(nnc2C2CCCCC2)SC1` was tested, and the Potency was inconclusive: 89.1 µM [inhibitor, single point]. With `CSc1nn(Cc2cccc(F)c2)c(N(C(C)=O)C(C)=O)c1S(=O)(=O)c1ccccc1` the Potency was inconclusive: 14.1 µM [inhibitor, full curve]. `O=C(CN1CCCCC1)N1CCCc2ccccc21` was tested, and the Potency was “inactive”. For `C/C=C1\COC(C(=O)NCc2ccncc2)(C(F)(F)F)C=C1C=C1CCCCC1` (stereo not given), the Potency was active: 10 µM and active: 17.8 µM. In the case of `FC(F)(F)c1cc(CO[C@H]2CCCN[C@H]2c2ccccc2)cc(C(F)(F)F)c1`, the Potency is reported as inconclusive: 39.8 µM [inhibitor, full curve]. With `COc1ccccc1NC(=O)Cc1csc(NC(=S)Nc2ccc(C)cc2)n1` the Potency was active: 8.91 µM. In the case of `CC1=C(C)/C(=N\OS(=O)(=O)c2ccc(C)cc2)C=CC1=O`, the Potency is reported as inconclusive: 2.82 µM [inhibitor, full curve, poor fit]. For `Cc1ccc(NCCC(=O)c2ccc(Br)cc2)cc1`, the Potency was inconclusive: 50.1 µM [inhibitor, partial curve, poor fit]. For `Cc1ccc(C(=O)Nc2nc(-c3ccccn3)cs2)o1`, the Potency was inconclusive: 70.8 µM [inhibitor, partial curve]. `O=C(COC(=O)/C=C/c1ccco1)Nc1ncc(C(F)(F)F)cc1Cl` was tested, and the Potency was inconclusive: 20 µM [inhibitor, single point]. `C[C@H]1CN([C@@H](C)CO)C(=O)c2cccc(NC(=O)c3ccncc3)c2O[C@H]1CN(C)C(=O)Nc1ccccc1` was tested, and the Potency was active: 56.2 µM. With `Cc1cc(N2CCN(c3ccccn3)CC2)n2cc(-c3ccccc3)nc2n1` the Potency was inconclusive: 70.8 µM [inhibitor, partial curve]. With `COc1ccc(C2=Nn3c(nnc3-c3ccco3)SC2)cc1` the Potency was inconclusive: 22.4 µM [inhibitor, full curve]. With `COC(=O)c1ccc(C2NC(c3ccc4c(c3)OCO4)=CC(c3ccccc3O)N2)cc1` (stereo not given) the Potency was “inactive”. `COc1ccc(Nc2c3c(nc4ccc(NC(=O)/C=C/c5cccc(OC)c5OC)cc24)CCCC3)cc1OC` was tested, and the Potency was “inactive”. In the case of `CCNc1cc2oc(=O)c(CN3CCOCC3)c(C)c2cc1C`, the Potency is reported as inconclusive: 63.1 µM [inhibitor, single point]. With `CCc1nc(SCC(=O)c2cccc([N+](=O)[O-])c2)n[nH]1` the Potency was inconclusive: 12.6 µM [inhibitor, partial curve, poor fit]. In the case of `CC(C)NC(=O)/C(C#N)=C/c1cccc(NC(=O)c2ccccc2Cl)c1`, the Potency is reported as inconclusive: 79.4 µM [inhibitor, single point]. With `Cc1ccc(CN(Cc2cccn2-c2nnc(N3CCCC3=O)s2)C(=O)Nc2ccccc2C(F)(F)F)cc1` the Potency was “inactive”. In the case of `Oc1ccc2c(c1)C1CCCC1(N1CCOCC1)O2` (stereo not given), the Potency is reported as inconclusive: 70.8 µM [inhibitor, single point]. For `CSC1=C(C#N)C(c2ccccc2C)C(C#N)=C(N)N1` (stereo not given), the Potency was active: 50.1 µM. For `CC(C)c1nc2sc3c(=O)[nH]c(=S)[nH]c3c2c2c1CCCC2`, the Potency was inconclusive: 22.4 µM [inhibitor, full curve, poor fit]. With `CCC1(c2ccccc2)SCC(c2ccccc2)=NC1=O` (stereo not given) the activity change, negative = inhibition was inactive: -1.82% [at 2.29 µM]. In the case of `COc1ccc(NCc2cc(=O)oc3cc(NC(C)=O)ccc23)cc1`, the Potency is reported as “inactive”. For `O=C(CCl)Nc1cccc(S(=O)(=O)NC2=NCCCCC2)c1`, the Potency was active: 17.8 µM. For `c1ccc(Nc2c3c(nc4ccccc24)CCC3)cc1`, the Potency was “inactive”. `O=C(NN1C(=O)C2C3C=CC(O3)C2C1=O)c1cccc(Br)c1` (stereo not given) was tested, and the Potency was “inactive”. For `COC(=O)c1cccc(NC2CC(=O)N(c3ccc(OC)c(OC)c3)C2=O)c1` (stereo not given), the Potency was inconclusive: 44.7 µM [inhibitor, partial curve]. With `Cc1ccc(-c2nc3ccccc3[nH]2)cn1` the Potency was “inactive”. `O=C(CCOc1ccccc1)Nc1ccnn1C1CCN(Cc2ccc(O)cc2)CC1` was tested, and the Potency was inconclusive: 56.2 µM [inhibitor, partial curve]. For `COc1ccc(NC(=S)Nc2ncccc2C)cc1OC`, the Potency was “inactive”. For `O=C(c1ccco1)N1CCN(C(=O)C2CCN(S(=O)(=O)c3cccc4nsnc34)CC2)CC1`, the Potency was inconclusive: 31.6 µM [inhibitor, partial curve, poor fit]. In the case of `N#CC1(C#N)COC23CCCCC2C1(C#N)C(=N)O3` (stereo not given), the Potency is reported as inconclusive: 79.4 µM [inhibitor, single point]. With `COc1ccc(-n2c(-c3ccco3)nc3c(cnn3-c3ccccc3C)c2=O)cc1` the Potency was inconclusive: 22.4 µM [inhibitor, partial curve].

— PubChem BioAssay AID588453 (National Center for Advancing Translational Sciences (NCATS), 2011)
% is set by controls: 0 for no effect and ±100 for the full control effect; potency is the fitted concentration of half-maximal effect; tags give direction and shape of the fitted curve.
Note: nearly all actives have a fitted effect of over 65% in size.
